Experimental data published in a collection of fitness landscapes (doi:10.1016/j.celrep.2020.107928).
In all, about 81,000 sequences were measured (“one-hybrid fitness for binding parS DNA”: median about -0.17, highest 2% from about 0.51 on). Some of the results follow.

B1: Caulobacter ParB omega fusion; a variant is named by its letters at X, in order, B8GW30 (parent)
chain: MESVVVGEPGMSEGRRGLGRGLSALLGEVDAAPAQAPGEQLGGSREAPIEILQRNPDQPRRTFREEDLEDLSNSIREKGVLQPILVRPSPDTAGEYQIVAGERAWRAAQRAGLKTVPIMVRELDDLAVLEIGIIENVQRADLNVLEEALSYKVLMEKFERTQENIAQTIGKSXSHVANXMRLLXLPDEVQSYLVSGELTAXHARAIAAAADPVALAKQIIEGGLSVRETEALARKAPNLSAGKSKGGRPPRVKDTDTQALESDLSSVLGLDVSIDHRGSTGTLTITYATLEQLDDLCNRLTRGI

Variants of: B1
Assay: one-hybrid fitness for binding parS DNA (scaled: cognate 1, non-cognate 0); higher = stronger binding
Details: with parS DNA site
How it was run: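 On M9-minus-histidine containing 0.1 mM IPTG and 5 mM 3-AT, E. coli USO cells with a HIS3 reporter, site 19 bp from the promoter, grew 48 hours at 37°C to select Caulobacter ParB libraries randomised at four specificity codons. Plasmids from before and after were Illumina-sequenced, with three replicate libraries pooled and variants under 10 reads left out. Fitness is the log change in variant-to-wild-type read ratio, rescaled against cognate and non-cognate.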

Row | Variant | one-hybrid fitness for binding parS DNA
1 | GSRR | ≤ 0.2
2 | YNTY | ≤ 0.2
3 | MFGA | ≤ 0.2
4 | RHFL | ≤ 0.2
5 | SQRN | ≤ 0.2
6 | RDKD | ≤ 0.2
7 | GFER | ≤ 0.2
8 | HHPS | ≤ 0.2
9 | MPAV | ≤ 0.2
10 | DRHC | ≤ 0.2
11 | MCTC | ≤ 0.2
12 | GPEG | ≤ 0.2
13 | ADGG | ≤ 0.2
14 | MVTH | ≤ 0.2
15 | SSRH | ≤ 0.2
16 | KLHS | ≤ 0.2
17 | SGHV | ≤ 0.2
18 | TPEK | ≤ 0.2
19 | VVPL | ≤ 0.2
20 | LYIG | ≤ 0.2
21 | PYMR | ≤ 0.2
22 | RRHH | ≤ 0.2
23 | RMIP | ≤ 0.2
24 | RTED | ≤ 0.2
25 | PAAR | ≤ 0.2

Row | Variant | one-hybrid fitness for binding parS DNA
26 | RKDC | 0.923
27 | QIDR | ≤ 0.2
28 | QDML | ≤ 0.2
29 | KWPG | ≤ 0.2
30 | SYVA | ≤ 0.2
31 | DPKF | ≤ 0.2
32 | NLET | ≤ 0.2
33 | YAVR | ≤ 0.2
34 | FVSL | ≤ 0.2
35 | RQAD | ≤ 0.2
36 | RQQR | ≤ 0.2
37 | SHQN | ≤ 0.2
38 | FSAA | ≤ 0.2
39 | EHQT | ≤ 0.2
40 | KAKM | ≤ 0.2
41 | FSNP | ≤ 0.2
42 | PYEM | ≤ 0.2
43 | SLQM | ≤ 0.2
44 | WLFR | ≤ 0.2
45 | AFLS | ≤ 0.2
46 | MCII | ≤ 0.2
47 | CNNG | ≤ 0.2
48 | PMYL | ≤ 0.2
49 | DYLN | ≤ 0.2
50 | RLDR | ≤ 0.2

Row | Variant | one-hybrid fitness for binding parS DNA
51 | CCLN | ≤ 0.2
52 | PMQH | 0.267
53 | GNQT | ≤ 0.2
54 | VWIG | ≤ 0.2
55 | QHVN | ≤ 0.2
56 | YNDM | ≤ 0.2
57 | PMDV | ≤ 0.2
58 | IDNP | ≤ 0.2
59 | TLKH | ≤ 0.2
60 | LFIS | ≤ 0.2
61 | ALIL | ≤ 0.2
62 | EFEC | ≤ 0.2
63 | HFMS | ≤ 0.2
64 | CLSV | ≤ 0.2
65 | INPF | ≤ 0.2
66 | VMVP | ≤ 0.2
67 | KCDC | ≤ 0.2
68 | YMVD | ≤ 0.2
69 | RIFR | ≤ 0.2
70 | TITQ | ≤ 0.2
71 | QGHN | ≤ 0.2
72 | SYEL | ≤ 0.2
73 | LPKS | ≤ 0.2
74 | AYSV | ≤ 0.2
75 | YMLT | ≤ 0.2

Row | Variant | one-hybrid fitness for binding parS DNA
76 | TLRY | ≤ 0.2
77 | RRFM | ≤ 0.2
78 | STCA | ≤ 0.2
79 | ESFS | ≤ 0.2
80 | HRLF | ≤ 0.2
81 | AKHH | ≤ 0.2
82 | ANEE | ≤ 0.2
83 | RHQM | 0.276
84 | GNGK | ≤ 0.2
85 | HNRK | ≤ 0.2
86 | LVES | ≤ 0.2
87 | IDIR | ≤ 0.2
88 | WRNP | ≤ 0.2
89 | PGYS | ≤ 0.2
90 | YQDF | 0.303
91 | CASD | ≤ 0.2
92 | SKPW | ≤ 0.2
93 | DVHG | ≤ 0.2
94 | KQKT | ≤ 0.2
95 | PLYK | ≤ 0.2
96 | KGDV | ≤ 0.2
97 | GRCG | ≤ 0.2
